Reference: PubChem BioAssay AID651820 (National Center for Advancing Translational Sciences (NCATS), 2012)
Hit rate of the full screen: of about 340,000 compounds, about 12,000 (3.5%) were called active. The shares of active, inactive and inconclusive entries below differ from those in the screen. Calls follow the shape of the dose curve; as a rule, active = well fitted inhibition curve with a large enough effect; inconclusive = small, poorly fitted or top-dose-only effect, or another doubt; inactive = no such curve, though single readings can be large or run the other way. No potency is given beside an inconclusive call; the fits are too rough.

Assay: qHTS Assay for Inhibitors of Hepatitis C Virus (HCV)
Settings: Huh7.5.1 HCVcc-Cre (HCVcc is cell-culture hepatitis C virus) infection, luciferase reporter, 44 h; activity change, negative = inhibition: at 41.8 µM (top of the series) unless noted
Outline: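 Reporter virus HCVcc-Cre (~0.5 moi) infects cells exposed to compound; seeding density 1,000 cells/well with 4 h settling beforehand. Luminescence, 15 sec read, taken 44 h post-infection following a 15 min RT substrate incubation.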
% is scaled to controls: 0 for no effect and ±100 for the full control effect; potency is read from the fitted curve at half-maximal effect; tags tell the direction and shape of the fitted curve.

Row | SMILES | Potency | activity change, negative = inhibition
1 | NC(=O)c1c(NC(=O)c2cccs2)sc2c1CCCCCC2 | active: 10 µM | 
2 | Cc1ccc(S(=O)(=O)N2CCN(C(=O)c3cc4c(s3)CCCC4)CC2)c(C)c1 | inconclusive [inhibitor, partial curve] | 
3 | COc1ccc2c(CCN)c[nH]c2c1 |  | inactive: 20.3%
4 | O=C(C[n+]1cc2ccccc2c2ccccc21)c1ccccc1 | inconclusive [inhibitor, single point] | 
5 | OC1(c2ccccc2)CN(c2ccccc2)C2=[N+]1CCS2 (stereo not drawn) | inconclusive [inhibitor, single point] | 
6 | Cc1cc(C(=O)CSc2n[nH]c(N)n2)c(C)n1-c1ccccc1 | active: 11.2 µM | 
7 | CCCCCCCCn1cnc2c(N)c(C)c(C)cc21 | active: 1.58 µM | 
8 | N#Cc1cccc(NCC(=O)Nc2cccc(S(=O)(=O)N3CCCCC3)c2)c1 | inconclusive [inhibitor, partial curve] | 
9 | COc1ccc(NC(=O)NC23CC4(C)CC(C)(CC(C)(C4)C2)C3)cc1OC | inconclusive [inhibitor, single point] | 
10 | CCCN(CCC)CCNC(=O)c1cc2c(=O)n(C)c3ccccc3c2n1C | inconclusive [inhibitor, partial curve] | 
11 | Cc1ccc(-c2nc(CS(=O)CC(=O)NC3CCCCC3)c(C)o2)cc1 (stereo not drawn) |  | inactive: 1.48%
12 | O=C(N=C1SC2CS(=O)(=O)CC2N1Cc1ccc(Cl)cc1)C1CC1 (stereo not drawn) |  | inactive: -3.29%
13 | O=c1c(-c2nnc(SCc3ccc(Cl)c(Cl)c3)o2)cccn1Cc1ccccc1 | inconclusive [inhibitor, single point] | 
14 | Fc1ccc(-c2csc(-c3ccc(C4SCCS4)cc3)n2)cc1F | inconclusive [inhibitor, single point] | 
15 | Cc1csc2c(N3CCN(C(=O)Nc4ccc(OC(F)(F)F)cc4)CC3)ncnc12 | inconclusive [inhibitor, partial curve] | 
16 | Cc1ccc2cc3c(NC(=O)c4cccnc4)nn(C)c3nc2c1 | inconclusive [inhibitor, partial curve] | 
17 | CCCNC(=O)N1C2=NC(C(=O)OC)=C(C(=O)OC)[C@@H]3N(Cc4ccccc4)c4ccccc4[C@]23C[C@H]1CO | inconclusive [inhibitor, single point] | 
18 | CC(C)Sc1nc(N)nc(-c2cccs2)c1C#N | inconclusive [inhibitor, single point] | 
19 | O=C(/C=C/c1ccoc1)c1ccccc1O |  | inactive: 36.5%
20 | Cc1cc(NCc2ccccn2)n2nc(C)c(-c3ccccc3)c2n1 | active: 1.58 µM | 
21 | O=C(C=Cc1ccccn1)c1ccccc1 | inconclusive [inhibitor, single point] | 
22 | CCCCCCSc1cc(-c2nc3cc(C)ccn3c2NCCCC)ccc1OC | inconclusive [inhibitor, full curve] | 
23 | Cc1cc(-c2cc(-c3ccccc3)on2)nc(NCC2CC2)n1 | inconclusive [inhibitor, full curve] | 

Row | SMILES | Potency | activity change, negative = inhibition
24 | CCn1c(=O)c(=O)[nH]c2cc(C(=O)NC3CCCc4ccccc43)ccc21 (stereo not drawn) | inconclusive [inhibitor, partial curve] | 
25 | CN(CCCCCCCCC(=O)/C=N/O)Cc1ccccc1 |  | inactive: 9.71%
26 | Cn1c(-[n+]2c(-c3ccccc3)cc(-c3ccccc3)cc2-c2ccccc2)nc2c([N+](=O)[O-])cccc21 | inconclusive [inhibitor, single point] | 
27 | COc1cc(C(=S)N2CCN(c3cccc(Cl)c3)CC2)ccc1O | inconclusive [inhibitor, full curve, poor fit] | 
28 | CC1=NC(=O)C(N=Nc2cccc(O)c2)N1c1ccccc1 (stereo not drawn) | inconclusive [inhibitor, single point] | 
29 | COc1ccccc1-n1nnnc1SCC(=O)NC1CC1 | inconclusive [inhibitor, single point] | 
30 | Cn1cc(CN2CCCC(C(=O)c3ccc(-c4ccccc4)c(F)c3)C2)cn1 (stereo not drawn) | inconclusive [inhibitor, partial curve] | 
31 | Cc1cc2cc(CCNC(=O)c3ccc(S(=O)(=O)N4CCOCC4)cc3)c(=O)[nH]c2cc1C | inconclusive [inhibitor, partial curve] | 
32 | O=C(NCCc1ccc(F)cc1)c1coc(=O)c(Br)c1 |  | inactive: 7.35%
33 | CC(C)Cn1c(=O)c(C(=O)NCc2ccc3c(c2)OCO3)c(O)c2ccccc21 | inconclusive [inhibitor, full curve] | 
34 | Cc1cc(O)c(-c2cc(C(=O)Nc3ccc(S(=O)(=O)N4CCOCC4)cc3)[nH]n2)cc1C | inconclusive [inhibitor, single point] | 
35 | CCn1c(=NC(=O)CS(=O)(=O)c2ccccc2)sc2cccc(OC)c21 | inconclusive [inhibitor, single point] | 
36 | O=C(O)c1cc(Br)ccn1 |  | inactive: 1.08%
37 | CCCC(C)C(=O)N(Cc1ccccc1)c1ccccn1 (stereo not drawn) | inconclusive [inhibitor, single point] | 
38 | CCOC(=O)N1CCC(=C2c3ccc(Cl)cc3CCc3cccnc32)CC1 | inconclusive [inhibitor, partial curve] | 
39 | C=CCOC(=O)C(C#N)c1nc2ccccc2nc1N1CCCC1 (stereo not drawn) | inconclusive [inhibitor, full curve, poor fit] | 
40 | CSc1ccc(CCNC(=O)c2ccc(CS(=O)Cc3ccccc3Cl)o2)cc1 (stereo not drawn) | inconclusive [inhibitor, single point] | 
41 | CCCCC(O)(CCCC)C(=O)NN(C(=O)CCl)c1ccccc1 | inconclusive [inhibitor, single point] | 
42 | CSc1nc(C)c(C(=O)C[n+]2ccccc2)cc1C#N |  | inactive: -18.6%
43 | O=C(Cn1c(=O)n(Cc2ccco2)c(=O)c2ccccc21)Nc1cccc(Cl)c1 | inconclusive [inhibitor, partial curve] | 
44 | CCN1CCc2nc(NC(=O)Cc3ccc4c(c3)OCCO4)sc2C1 | inconclusive [inhibitor, single point] | 
45 | Cc1ccc(-c2nc(C(=O)NCC3CCCO3)cc3c2[nH]c2ccccc23)cc1 (stereo not drawn) | inconclusive [inhibitor, full curve, poor fit] | 
46 | Cc1cc(C)n(CCC(=O)N/N=C/c2ccccc2O)n1 | inconclusive [inhibitor, single point] | 

Row | SMILES | Potency | activity change, negative = inhibition
47 | O=C(/C=C/c1ccc([N+](=O)[O-])cc1)N1CCN(S(=O)(=O)c2ccccc2)CC1 | inconclusive [inhibitor, single point] | 
48 | CCN(CCCNC(=O)Cn1ncc2c(=O)oc3ccccc3c21)c1cccc(C)c1 | active: 12.6 µM | 
49 | CC(C)Cn1c(N)c(C(=O)CCl)c(=O)n(C)c1=O | inconclusive [inhibitor, partial curve, poor fit] | 
50 | COc1cc(-c2cc(C(=O)Nc3cc(S(=O)(=O)N4CCOCC4)ccc3C)c3ccccc3n2)cc(OC)c1OC | inconclusive [inhibitor, full curve] | 
51 | Cc1cc(C(=O)COC(=O)C2CCN(C(=O)c3ccc(Cl)cc3)CC2)c(C)n1CC1CCCO1 (stereo not drawn) |  | inactive: -1.99%
52 | O=C(COc1ncnc2ccccc12)Nc1ccc(Cl)c(S(=O)(=O)N2CCOCC2)c1 | inconclusive [inhibitor, single point] | 
53 | COc1ccc(N2CC(C(=O)N3CCc4ccccc43)CC2=O)cc1 (stereo not drawn) |  | inactive: -2.71%
54 | C=CCN=c1scc(-c2ccccc2)n1/N=C/c1ccccn1 | active: 14.1 µM | 
55 | CC(=O)NCCNC(=O)c1ccc(NC2=NC3CS(=O)(=O)CC3S2)cc1 (stereo not drawn) |  | inactive: 24.7%
56 | Cc1ccc(NC(=S)NCC(C)C)cc1 |  | inactive: -27.7%
57 | Clc1ccc(CSc2cc3c(nn2)-c2ccccc2CC3)cc1 | inconclusive [inhibitor, single point] | 
58 | O=C(C1CCN(C2CCN(Cc3ccsc3)CC2)CC1)N1CCOCC1 | inconclusive [inhibitor, single point] | 
59 | O=C(C1=C[C@@H](c2ccc(Br)cc2)C[C@@H](OCCCCO)O1)N1CCN(Cc2ccc3c(c2)OCO3)CC1 | inconclusive [inhibitor, single point] | 
60 | Cc1ccccc1[C@@H]1C(C#N)=C(N)S[C@H]1C(=O)c1ccccc1 | inconclusive [inhibitor, single point] | 
61 | OC1(c2ccccc2)c2ccccc2-c2ncccc21 (stereo not drawn) |  | inactive: 11.6%
62 | Cc1cccc(-n2c(Cc3ccccc3)nnc2SCc2ccc([N+](=O)[O-])cc2)c1 | inconclusive [inhibitor, partial curve, poor fit] | 
63 | OC(CN1CCCCCC1)CN(c1ccccc1)c1ccccc1 (stereo not drawn) | inconclusive [inhibitor, single point] | 
64 | COc1cc(CCC(=O)Nc2cc(Cl)ccc2N2CCN(C)CC2)cc(OC)c1OC | inconclusive [inhibitor, partial curve] | 
65 | CC(NC(=O)CCc1ccccc1)c1cc2c(cc1Cl)OCCO2 (stereo not drawn) | inconclusive [inhibitor, single point] | 
66 | COc1ccc([N+](=O)[O-])cc1NC(=O)c1cccnc1 | inconclusive [inhibitor, partial curve] | 
67 | CCN(CC)C(=O)c1ccc(S(=O)(=O)NCc2cccnc2)cc1 | inconclusive [inhibitor, single point] | 
68 | CN1C(=O)/C(=C/c2cccc(Cl)c2)Sc2ccc(C(=O)N3CCCC3)cc21 | inconclusive [inhibitor, partial curve] | 
